Assay results from the RNAGym collection of RNA variant scans (doi:10.7554/elife.90254).
The source gives no read counts; variants with many changes may rest on few reads.

B1: LINE1-mini (parent)
chain: GGCAGAGCUCAACACAGCGUGGCAAAGUGGCUGUGGCUAGACUGCC

Variants of: B1
Experiment: self-cleavage, relative activity (ratio to wild type); higher = more cleavage; in vitro, sequencing; the parent is a self-cleaving ribozyme

Row | Variant | self-cleavage
1 | GGCAUAGCUCAACAAAGCGUGGCAACGUGGUUGUGGCUAGAGUGCC [G5U C15A A26C C31U C42G] | 0.02
2 | GGCAUAGUUCAACAGAGCGUGGCAAAGUGGCUGUGGCUCGACUGCC [G5U C8U C15G A39C] | 0.22
3 | GGCAUAGCUCAAUACAGCAUGGCAAAGUGGCUGUGGCUACACUGCC [G5U C13U G19A G40C] | 0.18
4 | GGCAUAGCUCAAAACAGCGUGGCAAGGUGGUUGUGGCUUGACUGCG [G5U C13A A26G C31U A39U C46G] | 0.04
5 | GGCAUAGCUAAACACAGCGUGGCAAAUUGGCCGUGGCUAGACCCCA [G5U C10A G27U U32C U43C G44C C46A] | 0.02
6 | GGCAUAGCUCAAGACAGCGGGACAAAGUGGCUGUGGCUAGACUGCC [G5U C13G U20G G22A] | 0.02
7 | GGCAUAGCUCAAGACAGCGUGGCCCAGUUGCUGUUGCUAGACUGCC [G5U C13G A24C A25C G29U G35U] | 0.01
8 | GGCAUAGCUGAACACAGCGUGGCAAAGUGGCAGUGGCUAGACUGCA [G5U C10G U32A C46A] | 0.01
9 | GGCAUAGCUGAACACAGCGUGACAAAGUGACAGUGGCUAACCUGCC [G5U C10G G22A G30A U32A G40A A41C] | 0
10 | GGCAUAGCUAAACACAUCGUGGCAAAGUGGAUAUGGCUAGACUGCC [G5U C10A G17U C31A G33A] | 0.03
11 | GGCAUAGCUUAACACAGCGUGGCAAAGUGGCUUUGGCUAGACUGCC [G5U C10U G33U] | 0.05
12 | GGCAUAGCUAAACACAUCGUGGAAAAGUGGCUGUGGCUAGACUGCC [G5U C10A G17U C23A] | 0.03
13 | GGCAUAGCUCAAUACUGGGUGCCAAAGUAGCUGUGGCUAGACUGCC [G5U C13U A16U C18G G22C G29A] | 0.03
14 | GGCAUAGCUCAACAAUGCGUGGCAAAGUGGCUGUGUCUAGACUGCC [G5U C15A A16U G36U] | 0.04
15 | GGCAUAGCUUAAUCCAGCGUGUUAAAGUGGCUGGGGCUAGACUGCC [G5U C10U C13U A14C G22U C23U U34G] | 0
16 | GGCAUAGCUGAACACAGCGUGGCAAAGUGGCUGUGGCUCGACUGCC [G5U C10G A39C] | 0.04
17 | GGCAUAGCUCAACAGGGCGUGGCAAAGUGGCUGUGGCUAGACUGCC [G5U C15G A16G] | 0.05
18 | GGCAUAGCUAAACACAGCAUGGCGAAGUGGCUGUGGCUACAUUGCC [G5U C10A G19A A24G G40C C42U] | 0.01
19 | GGCAUAGUUCAACAGAGCGUGGCAAAGCGGCUGUGGCUAGACUGCC [G5U C8U C15G U28C] | 0.12

Row | Variant | self-cleavage
20 | GGCAUAGCUGAACACAGCGUGGCAAAUUGGCUGUGGCUAGACUGCU [G5U C10G G27U C46U] | 0
21 | GGCAUAGCUCAACAGAGCGUGGCAAGGUGGCUGUGGCUAGACUGCC [G5U C15G A26G] | 0.05
22 | GGCAUAGCUAAACACAGCGCGGCAAAGUGGCUGUGGCUAGACUGCC [G5U C10A U20C] | 0.01
23 | GGCAUAGCUCAAGACAGCGUGGCAAAGUGGCUGUGGCGAGCCUGCC [G5U C13G U38G A41C] | 0.02
24 | GGCAUAGCUGAACACAGCGUGGCAAAGUGACUGUGCCUAGACUGCC [G5U C10G G30A G36C] | 0.02
25 | GGCAUAGCUAAACACAACGUGGAAAAGUGGCAGUGGCUAGACUGCC [G5U C10A G17A C23A U32A] | 0
26 | GGCAUAGCUAAACAGAGCGUGGCAAAGUGGUUGUGUCUUGACUGCC [G5U C10A C15G C31U G36U A39U] | 0.01
27 | GGCAUAGCUGAACACAGCGUGGCAAAGUUGCUGUGGCUAGACUGCC [G5U C10G G29U] | 0.02
28 | GGCAUAGCUCAAUAGAGCGUGGCAACGUGUCUGUGGCUAGACUGAG [G5U C13U C15G A26C G30U C45A C46G] | 0.01
29 | GGCAUAGCUUAACACAGCGUGGCAAAGUGGUUGUGGCUAGACUGCC [G5U C10U C31U] | 0.07
30 | GGCAUAGCUCAAAACAGCGUGGCAAAGUAGCUGUGGCUAGACUGCC [G5U C13A G29A] | 0.1
31 | GGCAUAGCUUAACACAGAGUGACAAAGUGGCUGUGGCUAGACUGCC [G5U C10U C18A G22A] | 0.76
32 | GGCAUAGCUAAACACAGCGUGGCAAAGUGGCUGUGUCUAGACUGCC [G5U C10A G36U] | 0.04
33 | GGCAUAGCUCAAAACAGCAUGGCAAAGUGGCUGCGGCUAGACUGCA [G5U C13A G19A U34C C46A] | 0.06
34 | GGCAUAGCUCAAUACAGCGUGGGAAAGUGGCUCUGGCUAGACUGCC [G5U C13U C23G G33C] | 0.02
35 | GGCAUAGCUAAACACAGCGUGGCAAAGUGGCUAUGGCUAGACUGCC [G5U C10A G33A] | 0.03
36 | GGCAUAGCUCAAAACAGCGUGGCAAAGUGGCUGUGGCUAAACUGCC [G5U C13A G40A] | 0.1
37 | GGCAUAGCUAAACACAGCGUGGCAAAGUGGCUGGGGCUAGACUGCC [G5U C10A U34G] | 0.02
38 | GGCAUAGCUCAAGACAGCGUGCCAAAGUGGCUUUGGGUAGACUGCC [G5U C13G G22C G33U C37G] | 0.03

Row | Variant | self-cleavage
39 | GGCAUAGCUCAACAAAGCGUGGCAAAGUGGCUGUGACUAGUCUGCC [G5U C15A G36A A41U] | 0.07
40 | GGCAUAGCUAAACACAGCGUGGCAAAUUGGCUGUGGCUAGACUCCC [G5U C10A G27U G44C] | 0.04
41 | GGCAUAGUUCAACACAGCGUGGCAAACUGGCUGAGGCUAGACUGCC [G5U C8U G27C U34A] | 0.09
42 | GGCAUAGCUCAAAAAAGCGUGGCAAAGUGGCUGUGGCUAGACUGCC [G5U C13A C15A] | 0.61
43 | GGCAUAGCUAAACAAAGCGUGGCAAAGUGGCUGUGGCUAGACUGAC [G5U C10A C15A C45A] | 0.05
44 | GGCAUAGCUGAACACAGCGUGUCAAAGUGGCUGGGGCUAGACUUCC [G5U C10G G22U U34G G44U] | 0.01
45 | GGCAUAGCUCAAGACAGCGUGGCAAAGUUGCUGUGGCUAGACUGCC [G5U C13G G29U] | 0.09
46 | GGCAUAGCUUAACACAGCGUGUCAAAGUGGCUGUGGCUAGACUGCC [G5U C10U G22U] | 0.91
47 | GGCAUAGCUAAACACAUCGUGGCAAAGUGGCUGUUGCUAGACUGCC [G5U C10A G17U G35U] | 0.06
48 | GGCAUAGCUAAACACAGCGUGGCAAAUUGGCUGCGGCUAGACUGCC [G5U C10A G27U U34C] | 0.01
49 | GGCAUAGCUAAACACAGGGUGGCCAAGUGGCUGUGGCUAGACUGCC [G5U C10A C18G A24C] | 0.02
50 | GGCAUAGCUGAACAGAGCGUUGCAGAGUGGCCGUGCCUAGACUGCC [G5U C10G C15G G21U A25G U32C G36C] | 0.02
51 | GGCAUAGCUCAACAGAGCGUGGAAUAGUGGCUGUGACUAGAUUGCC [G5U C15G C23A A25U G36A C42U] | 0.05
52 | GGCAUAGCUCAAGACAGCGUGGCAAAGUGGCUGUGGCUAGACUGAC [G5U C13G C45A] | 0.01
53 | GGCAUAGCUAAACACAGCGUUGCAAAGUGGCUGUGGCUAGACUGCA [G5U C10A G21U C46A] | 0.06
54 | GGCAUAGCUAAAUACAGCGUGGCAAAGUGGCUGUGGUUAGACUGCC [G5U C10A C13U C37U] | 0.02
55 | GGCAUAGCUAAACACAGCGUGACAAAGUAGCUGUGGCAAGACUGCC [G5U C10A G22A G29A U38A] | 0.02
56 | GGCAUAGCUAAACACAGCGUGGUAAAGUGGCGGUGGCUAGACUGCC [G5U C10A C23U U32G] | 0.07
